Reference: the RNAGym collection of RNA variant scans (doi:10.1073/pnas.2313332121)
Variants at the background level are over-represented here.

B1: TPR 5TU (parent)
chain: GGAUCUUCUCGAUCUAACAAAAAAGACAAAUCUGCCACAAAGCUUGAGAGCAUCUUCGGAUGCAGAGGCGGCAGCCUUCGGUGGCGCGAUAGCGCCAACGUUCUCAACUAUGACACGCAAAACGCGUGCUCCGUUGAAUGGAGUUUAUCAUG

Variants of: B1
Assay: polymerase ribozyme fitness, log enrichment relative to wild type (log ratio); higher = more active; in vitro selection for triplet polymerase activity
How it was run: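 Fitness measures genotype enrichment against wild-type enrichment on a logarithmic scale, with inverse-variance-weighted averaging of replicates. The logarithm is base 2, and genotypes were kept only with ≥10 input reads and ≥1 read per output in Illumina sequencing. The sequenced libraries came from one triplicate in vitro selection round, including frozen incubation at −7 °C, of PCR-built, transcribed mutant libraries of each subunit of a heterodimeric triplet polymerase ribozyme.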

GGAUCUUCUCGAUCUAACAAAAAAGACAAAUCUGCCACAAAGCUUGAGAGCAUCUUCGGAUGCAGAGGCGGCAGCCUUCGGUGGCGCGACAGUGCCAACGUUCUCAACUAUGACACGCAAAACGCGUCCUCCGUUGAAUGGAGUUUAUCAUG and GGAUCUUCUCGAUCUAACAAAAAAGACAAAUCUGCCACAAAGCUUGAGAGCAUCUUCGGAUGCAGAGGCGGCAGCCUUCGGUGGCGCGAAAGGGCCAACGUUCUCAACUAUGACACGCAAAACGCGUGCUCCGUUGAAUGGCGUUUAUCAUG cannot be ordered by “polymerase ribozyme fitness (log ratio)” value: at most -4.2 for the first, at most -4.2 for the second.

First: GGAUCUUCUCGAUCUAACAAAAAAGACAAAUCUGCCACAAAGCUUGAGAGCAUCUUCGGAUGCAGAGGCGGCAGCCUUCGGUGGCGCUAUAGCGCCAACGUUCUCAACUAUGACAUGCAAAACGCGUGCUCCGUUGCAUGGAGUUUAUGAUG
Second: GGAUCUUCUCGAUCUAACAAAAAAGACAAAUCUGCCACAAAGCUUGAGAGCAUCUUCGGAUGCAGAGGCGGCAGCCUUCGGUGGCGCGUUAGCCCCAGCGUUCUCAACUAUGACACGCAAAACGCGUGCUCCGUUGAAUGGAGUUUAUCGUG
The “polymerase ribozyme fitness (log ratio)” value of the first is lower: at most -4.2 for the first, -2.68 for the second.

GGAUCUUCUCGAUCUAACAAAAAAGACAAAUCUGCCACAAAGCUUGAGAGCAUCUUCGGAUGCAGAGGCGGCAGCCUUCGGUGGCGCGACAGCACCAACGUUCUCAACUAUGACACGCAAAAAGCGUGCUCCGUUGAAUGUAGUUUAUCAUG and GGAUCUUCUCGAUCUAACAAAAAAGACAAAUCUGCCACAAAGCUUGAGAGCAUCUUCGGAUGCAGAGGCGGCAGCCUUCGGUGGCGCUAUAGCGCCAACGUUCUCAACUAUGACACGCAAAACGCGUGCACCGUUGAAUGGAGUUUCUCAUG cannot be ordered by “polymerase ribozyme fitness (log ratio)” value: at most -4.2 for the first, at most -4.2 for the second.

Going from GGAUCUUCUCGAUCUAACAAAAAAGACAAAUCUGCCACAAAGCUUGAGAGCAUCUUCGGAUGCAGAGGCGGCAGCCUUCGGUGGCGCGACAGCGCCAACGUUCUCAACUAUGACACGCAAAACGCGUGCUCCGUUGAAUGGAGUUUUUCAUG to GGAUCUUCUCGAUCUAACAAAAAAGACAAAUCUGCCACAAAGCUUGAGAGCAUCUUCGGAUGCAGAGGCGGCAGCCUUCGGUGGCGCGUUAGCGCCAACGUUCUCAACUAUGACACGCAAAACGCGUGCUCCGUUGAAUGGAGUUUAUCACG, the “polymerase ribozyme fitness (log ratio)” value falls from -3.58 to at most -4.2.

First: GGAUCUUCUCGAUCUAACAAAAAAGACAAAUCUGCCACAAAGCUUGAGAGCAUCUUCGGAUGCAGAGGCGGCAGCCUUCGGUGGCGCUAUAGCGCCAACGUUCUCAACUAUGACACGCAAAACGCGAGUUCCGUUGAAUGGAGUUUAUCAUG
Second: GGAUCUUCUCGAUCUAACAAAAAAGACAAAUCUGCCACAAAGCUUGAGAGCAUCUUCGGAUGCAGAGGCGGCAGCCUUCGGUGGCGCGUUAGCGCCAACGUUCUCAACUAUGACACGCAAAACGCGUGCUCCGUUGAAUGGAGUUUAUCGUG
The “polymerase ribozyme fitness (log ratio)” value of the first is lower: at most -4.2 for the first, -0.42 for the second.

GGAUCUUCUCGAUCUAACAAAAAAGACAAAUCUGCCACAAAGCUUGAGAGCAUCUUCGGAUGCAGAGGCGGCAGCCUUCGGUGGCGCGGUACCGCCAACGUUCUCAACUAUGACACGCAAAACGCGUGCUCCGUUGAAUGGAGUUUAUCAUU and GGAUCUUCUCGAUCUAACAAAAAAGACAAAUCUGCCACAAAGCUUGAGAGCAUCUUCGGAUGCAGAGGCGGCAGCCUUCGGUGGCGCGGUAGCGCCAACGUGCUCUACUAUGACACGCAAAACGCGUGCUACGUUGAAUGGAGUUUAUCAUG cannot be ordered by “polymerase ribozyme fitness (log ratio)” value: at most -4.2 for the first, at most -4.2 for the second.

GGAUCUUCUCGAUCUAACAAAAAAGACAAAUCUGCCACAAAGCUUGAGAGCAUCUUCGGAUGCAGAGGCGGCAGCCUUCGGUGGCGCGAAAGAGCCAACGUUCUCAACUAUGACACGCAAAACGCGUGCUCCGUUGAAUGGAGUUUAUCAUG and GGAUCUUCUCGAUCUAACAAAAAAGACAAAUCUGCCACAAAGCUUGAGAGCAUCUUCGGAUGCAGAGGCGGCAGCCUUCGGUGGCGCGACAGCGCCAACGUUCUCAACUAUGACACGCAAAACGCGCGCUCCGUUGAAUGGAGUUUAUCAUG cannot be ordered by “polymerase ribozyme fitness (log ratio)” value: at most -4.2 for the first, at most -4.2 for the second.

GGAUCUUCUCGAUCUAACAAAAAAGACAAAUCUGCCACAAAGCUUGAGAGCAUCUUCGGAUGCAGAGGCGGCAGCCUUCGGUGGCGCGGUAGCGCCAAGGUACUCAACUAUGACACGCAAAAGGCGUGCUCCGUCGAAUGGAGUGUAUCAUG and GGAUCUUCUCGAUCUAACAAAAAAGACAAAUCUGCCACAAAGCUUGAGAGCAUCUUCGGAUGCAGAGGCGGCAGCCUUCGGUGGCGCGGUAGCGCCAACGUUCUCAACUACGACACGCAAAACGCGUGCUCCGUUGAAUGGAGUUUAUCAUG cannot be ordered by “polymerase ribozyme fitness (log ratio)” value: at most -4.2 for the first, at most -4.2 for the second.

GGAUCUUCUCGAUCUAACAAAAAAGACAAAUCUGCCACAAAGCUUGAGAGCAUCUUCGGAUGCAGAGGCGGCAGCCUUCGGUGGCGCGACAGCCCCAACGUUCUCAACUAUGACACGCAAAACGCGUGCUCCGUUGAAUGGAGUUUAUCAUG and GGAUCUUCUCGAUCUAACAAAAAAGACAAAUCUGCCACAAAGCUUGAGAGCAUCUUCGGAUGCAGAGGCGGCAGCCUUCGGUGGCGCCAUAGCGCCAACGUUCUCAACUAUGACACGCAAAACGCGUGCUCCGUUGAAUGGAGUUUAUCAAG cannot be ordered by “polymerase ribozyme fitness (log ratio)” value: at most -4.2 for the first, at most -4.2 for the second.

With GGAUCUUCUCGAUCUAACAAAAAAGACAAAUCUGCCACAAAGCUUGAGAGCAUCUUCGGAUGCAGAGGCGGCAGCCUUCGGUGGCGCGGUAGCACCAACGUUCUGAACUAUCACACGCAAAACGCGUGCUCCGUUGAAUGGAGUUUAUCAUG the “polymerase ribozyme fitness (log ratio)” value was at most -4.2.
